Consider 42 sequences from paper PMC7819943, “Rice protein-binding microarrays: a tool to detect cis-acting elements near promoter regions in rice”.

This is one part of the list.

The target in the experiment is T1, OsWOX13 (Oryza sativa, UniProt Q5QMM3 1-267).
T1 sequence: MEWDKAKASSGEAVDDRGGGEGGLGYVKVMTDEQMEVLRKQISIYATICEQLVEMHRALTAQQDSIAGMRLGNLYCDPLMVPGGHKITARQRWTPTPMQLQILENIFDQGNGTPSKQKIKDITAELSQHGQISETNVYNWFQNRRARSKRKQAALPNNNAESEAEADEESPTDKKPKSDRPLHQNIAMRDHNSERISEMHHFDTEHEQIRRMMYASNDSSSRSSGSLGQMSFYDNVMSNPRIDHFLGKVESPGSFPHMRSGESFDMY
In words: protein-binding microarray (RPBM); PBS, 2% BSA, 51.3 ng/ul salmon testes DNA, 50 uM zinc acetate, 200 nM TF, 25 C, 1 h; high values mean tight binding. The settings on record: protein: recombinant; tags: N-terminal polyhistidine and DsRed monomer fusion (pET32a); label: CyDye5-dUTP incorporated in the synthesized complementary strand; 3' TTTTT single-stranded linker to array surface; dsDNA, one strand shown. Summed up: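 Binding signal here means per-feature fluorescence intensity in arbitrary units. The values were read on an Axon 4000B scanner after a custom Agilent array, double-stranded by primer extension with Cy5-dUTP, was incubated with 200 nM protein at 25 °C for 1 h in PBS with 2% BSA, salmon testes DNA and 50 µM zinc acetate, then washed. The proteins were transcription factors with an N-terminal polyhistidine tag and DsRed, expressed in E. coli BL21-CodonPlus and purified on Ni–NTA.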
Regarding “AGGCAGTATTCAATCTTGATTATGGGCAGCTGAAACTCGTCGGAGTCACCTAGTGCAG”, the binding signal is 4640 fluorescence intensity (a.u.).

As for “ACTTAAAATAGATAGAATTTGAATTGATGTCATATTTAGACGGAGTCACCTAGTGCAG”, the binding signal is 8600 fluorescence intensity (a.u.).

With “ATAATTAGTCGTGTGCATCACCGTCATCTGGTATCTCTTGCGGAGTCACCTAGTGCAG”, the binding signal was 3180 fluorescence intensity (a.u.).

As to “TTACTAATTTAGTTTAAACAGGTACAATTAATTACTCGCGCGGAGTCACCTAGTGCAG”, the binding signal is 45300 fluorescence intensity (a.u.).

On to “AGCTAATTATGGCCAAGGCCTACTTGCAGTTTGCTTCCCTCGGAGTCACCTAGTGCAG”, for which the binding signal is 25600 fluorescence intensity (a.u.).

Regarding “TATCTAAACAAAATTAACAGGAACACCATATAACAGATTACGGAGTCACCTAGTGCAG”, the binding signal is 3670 fluorescence intensity (a.u.).

As to “CTTTTGATTGTTCGTTTTGCTATGATTTTGTTCAAGTTAACGGAGTCACCTAGTGCAG”, the binding signal is 22800 fluorescence intensity (a.u.).

Turning to “CCTCGTCTAGATTGAAACAGAGATAATTAGGCAACGTGAACGGAGTCACCTAGTGCAG”, the binding signal is 18400 fluorescence intensity (a.u.).

As for “AGTACATAATTTATTTTCATTTTACATCATATACTATGTACGGAGTCACCTAGTGCAG”, the binding signal was 7120 fluorescence intensity (a.u.).

Consider “CAACTACTCATTCCAAATTATCTATAACCAATCTAACAGCCGGAGTCACCTAGTGCAG”, for which the binding signal is 4140 fluorescence intensity (a.u.).

For the sequence “TTATTAATTTCTAGTATTAGTTTGTGTTGTCTAGACATTTCGGAGTCACCTAGTGCAG”, the binding signal is 4720 fluorescence intensity (a.u.).

As to “ACTAAACAGGGCCTAATTAAGCTGTGTATAGTAAGCACAACGGAGTCACCTAGTGCAG”, the binding signal is 20800 fluorescence intensity (a.u.).

As to “AGTTCAACTGCGATAATTGAGCTGCTCATGCTATTTGTTCCGGAGTCACCTAGTGCAG”, the binding signal was 4870 fluorescence intensity (a.u.).

With “TTATAAACAGATGAAGTACCGCATATAACTTATTGCCTTGCGGAGTCACCTAGTGCAG”, the binding signal is 6130 fluorescence intensity (a.u.).

For the sequence “CTTTAATTTGGTAAGCTTAATTATGTTACCCGGTTACCCCCGGAGTCACCTAGTGCAG”, the binding signal is 45800 fluorescence intensity (a.u.).

As to “ATTAATTGATCCTCCTTAGAAGATGAACTCAGACTTCAAACGGAGTCACCTAGTGCAG”, the binding signal is 5530 fluorescence intensity (a.u.).

As to “GGTGAATGAGGTTATTATAATTACCAGAACCACGGGGAAGCGGAGTCACCTAGTGCAG”, the binding signal was 6480 fluorescence intensity (a.u.).

Consider “CTAATCATGGACTAATTAGGCACAAAAGATTCGTCTCGCACGGAGTCACCTAGTGCAG”, for which the binding signal was 18400 fluorescence intensity (a.u.).

As for “AAAATCTAAGTAATTATTAATTCTTTTCCTATCATTTGATCGGAGTCACCTAGTGCAG”, the binding signal is 6010 fluorescence intensity (a.u.).

On to “TTGATTTACCTCTCTACTTTAATTTAATTTAGAATACTAACGGAGTCACCTAGTGCAG”, for which the binding signal is 4270 fluorescence intensity (a.u.).

For the sequence “TTCATGAAATGATCCTGACAGATCATACACGATTGTACATCGGAGTCACCTAGTGCAG”, the binding signal is 3750 fluorescence intensity (a.u.).

Turning to “GTTTGGATTGAAGCCAATTCTTGCCCTATCAATTATTTGGCGGAGTCACCTAGTGCAG”, the binding signal is 16500 fluorescence intensity (a.u.).

“ACTATCTTAATTAGTGGTAGTCACTGGTGCCCAGGCGACGCGGAGTCACCTAGTGCAG”: the binding signal is 18200 fluorescence intensity (a.u.).

With “TCAAAATCTAACTTTCTAGTTAATTTCGTGAGATAGCTCTCGGAGTCACCTAGTGCAG”, the binding signal is 4150 fluorescence intensity (a.u.).

In the case of “ATAACCACAATAGTTATGACTGTACTACTTACTCTTTATACGGAGTCACCTAGTGCAG”, the binding signal is 14300 fluorescence intensity (a.u.).

Turning to “AAACAATTACTCCCTTTATTAGGTTTAAATAAGTCACAAGCGGAGTCACCTAGTGCAG”, the binding signal was 3660 fluorescence intensity (a.u.).

As for “CTACTGAGCATAATTAATTTATAATTAGCATATGTGATAACGGAGTCACCTAGTGCAG”, the binding signal is 28500 fluorescence intensity (a.u.).

On to “TATGCACCAAAAGTCACATCAACTATAGCCTAGATTCATACGGAGTCACCTAGTGCAG”, for which the binding signal is 16100 fluorescence intensity (a.u.).

As to “CAAACCGATTGAGGGGCGTGATTTGAACTCGACGCTTATTCGGAGTCACCTAGTGCAG”, the binding signal was 10700 fluorescence intensity (a.u.).

Turning to “TTATTTAATTAGTATATACATTTAGGTTTGCTTGATAAGACGGAGTCACCTAGTGCAG”, the binding signal is 11600 fluorescence intensity (a.u.).

Take “TAACATTTATCTAAATAAATAAATTTGTAGTGGCACGGATCGGAGTCACCTAGTGCAG”: the binding signal was 3820 fluorescence intensity (a.u.).

Consider “CCGCTGTAGCTGATTGCCAGTGTCAGATCAAGCTGTGAATCGGAGTCACCTAGTGCAG”, for which the binding signal was 9800 fluorescence intensity (a.u.).

Consider “ATGGTGTATAAATTAATCACACATTAAAATTGTCCCGTGACGGAGTCACCTAGTGCAG”, for which the binding signal was 9920 fluorescence intensity (a.u.).

As to “TTAATTAATTTTAAATAATATGCATAAAACGAGGGGATATCGGAGTCACCTAGTGCAG”, the binding signal was 15600 fluorescence intensity (a.u.).

As for “AATAATTTACCTTGTTCTACCGTAGCAAATAAAGACTCAACGGAGTCACCTAGTGCAG”, the binding signal was 4290 fluorescence intensity (a.u.).

Take “CTTTTAACTTGAAATTTAAATTTGTAAGACAAAATTTAAACGGAGTCACCTAGTGCAG”: the binding signal is 3690 fluorescence intensity (a.u.).

Turning to “TAACTTTTCAATCACATCAAAACTTTTCTACACACGTAAACGGAGTCACCTAGTGCAG”, the binding signal is 9800 fluorescence intensity (a.u.).

For “TTGCACATTGATTGTCTCCAATTTTGGTGAGTTTTCGGCACGGAGTCACCTAGTGCAG”, the binding signal was 28800 fluorescence intensity (a.u.).

Take “TTTAATTAGTTCGTTATCGGTTCCCTACAAACCGCAAACGCGGAGTCACCTAGTGCAG”: the binding signal was 26600 fluorescence intensity (a.u.).

Turning to “TGAGTAAATGTGTTGTTGTTAATTGCTATATGTACAGTTGCGGAGTCACCTAGTGCAG”, the binding signal is 5280 fluorescence intensity (a.u.).

In the case of “TCGTTGTAATTAAATCTTTACAACAAGATATCATATGATTCGGAGTCACCTAGTGCAG”, the binding signal is 8340 fluorescence intensity (a.u.).

With “TCCTTTTAACAGCGCATTTGTCTATTGAGAAAATTGATTCCGGAGTCACCTAGTGCAG”, the binding signal was 4650 fluorescence intensity (a.u.).
